Experimental data taken from the supplement of paper PMC12217912.
The list shows a part of the results. Sequences were assembled here from the parent chain. Inactive controls read about 0.05.

B1: TEV protease; numbered along this chain (parent)
chain: MGESLFKGPRDYNPISSSICHLTNESDGHTTSLYGIGFGPFIITNKHLFRRNNGTLVVQSLHGVFKVKDTTTLQQHLVDGRDMIIIRMPKDFPPFPQKLKFREPQREERICLVTTNFQTKSMSSMVSDTSCTFPSGDGIFWKHWIQTKDGQCGSPLVSTRDGFIVGIHSASNFTNTNNYFTSVPKNFMELLTNQEAQQWVSGWRLNADSVLWGGHKVFMVKPEEPFQPVKEATQL

Variants of: B1
Experiment: raw area under fraction-flipped curve 0-4 h after induction (AUC4h, not background-subtracted), DNA-recorder readout of cleavage of the substrate (dimensionless); higher = more cleavage of the substrate by the protease variant
Details: temperature: 34 °C; time window: 0-4 h after rhamnose induction
Experimental: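 In vivo DNA recorder in E. coli TOP10(DE3) ΔrhaA at 34 °C. Each TEVp single-site mutant (parent TEVp 0) is paired with a single-site variant of the 7-mer TEVs (canonical ENLYFQ|S). The substrate sits between flexible linkers in a Bxb1-sfGFP-TEVs-SsrA fusion, so cleavage stabilises Bxb1 and speeds flipping of a recombination array, read by NGS. The value is the raw area under the fraction-flipped curve over 0-4 h after rhamnose induction (AUC4h), with ≥20 reads per time point. It is not background-subtracted; inactive controls average about 0.047.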
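Also: Bxb1 expression induced with 0.2% (w/v) L-rhamnose at OD600 near 0.5, cultures sampled hourly, flipped fraction per protease–substrate barcode pair counted by paired-end Illumina sequencing.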

| Variant | area with substrate ENLAFQS | area with substrate ENLDFQS | area with substrate ENLEFQS | area with substrate ENLFFQS | area with substrate ENLHFQS | area with substrate ENLIFQS | area with substrate ENLKFQS | area with substrate ENLLFQS | area with substrate ENLNFQS | area with substrate ENLPFQS | area with substrate ENLRFQS | area with substrate ENLSFQS | area with substrate ENLVFQS | area with substrate ENLWFQS | area with substrate ENLCFQS | area with substrate ENLMFQS | area with substrate ENLQFQS | area with substrate ENLGFQS | area with substrate ENLTFQS |
| --- | --- | --- | --- | --- | --- | --- | --- | --- | --- | --- | --- | --- | --- | --- | --- | --- | --- | --- | --- |
| L33N | 0.066 | 0.0733 | 0.0679 | 0.0755 | 0.0657 | 0.0798 | 0.0683 | 0.0628 | 0.0608 | 0.0655 | 0.0736 | 0.0825 | 0.0888 | 0.07 |  |  |  |  |  |
| E25K | 0.0624 | 0.0638 |  | 0.0929 | 0.0748 | 0.0945 | 0.0766 | 0.0625 | 0.0598 | 0.054 | 0.0177 | 0.0615 | 0.0871 |  | 0.0435 | 0.0801 | 0.0615 |  |  |
| S32A | 0.0646 | 0.0627 | 0.0708 | 0.0861 | 0.0609 | 0.0776 | 0.0561 | 0.0693 | 0.0576 |  | 0.0704 |  |  | 0.0706 | 0.0692 |  | 0.0747 | 0.0648 |  |
| S32R | 0.0633 | 0.0593 | 0.0568 | 0.0975 | 0.0726 | 0.0842 | 0.0714 | 0.0707 | 0.0751 |  |  | 0.0576 | 0.0813 |  | 0.0559 | 0.0767 |  |  | 0.0709 |
| S32Y | 0.0676 | 0.0702 | 0.0729 | 0.0836 | 0.0656 | 0.0766 | 0.078 | 0.0704 | 0.0692 | 0.0662 | 0.0672 | 0.0675 | 0.0661 | 0.0734 | 0.0795 | 0.069 | 0.0729 | 0.0646 |  |
| S32D | 0.0697 | 0.0561 | 0.0576 | 0.106 | 0.0642 |  | 0.0564 | 0.0492 | 0.0573 | 0.0685 | 0.0666 | 0.0667 |  | 0.0689 | 0.0691 |  | 0.0668 |  |  |
| S32L | 0.0618 | 0.0673 | 0.0645 | 0.0369 | 0.0561 | 0.0786 | 0.0789 |  | 0.0599 | 0.0569 | 0.0941 | 0.0674 |  | 0.0446 | 0.0669 | 0.0896 | 0.0781 |  |  |
| S32W | 0.0513 | 0.0569 | 0.0682 | 0.0794 |  | 0.0721 | 0.0763 | 0.068 | 0.061 | 0.0834 | 0.0744 | 0.0631 | 0.0905 | 0.0597 |  |  | 0.0578 | 0.0496 |  |
| S32E | 0.0663 | 0.0661 | 0.0655 | 0.0955 | 0.0813 | 0.079 | 0.0726 | 0.0763 | 0.0585 | 0.0718 | 0.0756 | 0.0684 | 0.0859 |  | 0.0726 | 0.0733 | 0.0507 | 0.0694 |  |
| S32G | 0.0516 | 0.0596 | 0.0588 | 0.0915 | 0.0685 | 0.0686 | 0.0748 | 0.0527 | 0.0653 | 0.0532 | 0.0673 | 0.0696 | 0.0909 | 0.058 | 0.0415 | 0.0627 | 0.0648 |  | 0.0667 |
| D27P | 0.0648 | 0.0645 | 0.063 | 0.0689 | 0.0626 |  | 0.0614 | 0.0502 | 0.0564 | 0.0399 | 0.0496 | 0.0582 | 0.0516 | 0.0854 | 0.0691 |  |  |  |  |
| S17W | 0.0549 | 0.0589 | 0.065 | 0.0876 | 0.0814 | 0.0868 | 0.0824 | 0.061 | 0.0463 | 0.05 | 0.0708 | 0.0581 | 0.0798 | 0.0657 |  | 0.0688 | 0.0211 |  |  |
| S16R | 0.0631 | 0.0688 | 0.0629 | 0.105 | 0.0703 | 0.0983 | 0.0877 |  | 0.0677 | 0.0572 |  | 0.0381 | 0.0774 | 0.0738 | 0.0734 | 0.08 | 0.0704 |  |  |
| S16T | 0.0696 | 0.0615 | 0.0706 | 0.0795 | 0.082 | 0.0909 | 0.0584 | 0.0754 | 0.0585 | 0.0644 | 0.0707 | 0.0596 | 0.0946 | 0.0691 | 0.0818 | 0.0987 | 0.0546 | 0.0605 |  |
| S16Q | 0.0714 | 0.0587 | 0.0665 | 0.0991 | 0.073 | 0.091 | 0.0776 | 0.0529 | 0.0723 | 0.0596 | 0.0716 | 0.0526 | 0.0743 | 0.0677 | 0.0737 | 0.0924 | 0.0663 | 0.0754 | 0.0415 |
| S16N | 0.0697 | 0.0796 | 0.0709 | 0.0817 | 0.0677 |  | 0.0764 | 0.062 | 0.064 | 0.0526 | 0.0942 | 0.0659 |  |  | 0.0646 | 0.0789 | 0.0822 | 0.0891 |  |
| S16M | 0.0877 | 0.0453 | 0.0614 | 0.0801 | 0.079 | 0 | 0.099 | 0.0697 | 0.0731 |  | 0.0958 | 0.0712 | 0.0696 |  | 0.0104 | 0.0739 | 0.0768 |  |  |
| S16Y | 0.0674 | 0.0685 | 0.0549 | 0.0964 | 0.0678 |  |  | 0.0675 | 0.0729 | 0.0668 |  | 0.0651 |  | 0.0707 |  |  | 0.0918 |  | 0.0717 |
| G28L | 0.0824 | 0.0608 | 0.0661 | 0.066 | 0.067 | 0.0736 | 0.0677 | 0.0608 | 0.0746 | 0.056 | 0.0549 | 0.0576 | 0.0719 | 0.0624 | 0.0638 | 0.0681 | 0.0537 | 0.0874 | 0.068 |
| G28T | 0.0701 |  | 0.0509 | 0.0683 | 0.0654 | 0.0781 | 0.0615 | 0.0667 | 0.0668 | 0.0389 |  | 0.0551 |  | 0.0683 |  | 0.0852 | 0.104 |  |  |
| H21P | 0.0494 | 0.0549 | 0.0553 | 0.0525 | 0.047 | 0.0618 | 0.0537 |  | 0.0604 | 0.057 | 0.0406 | 0.0531 | 0.0598 | 0.0555 | 0.0437 | 0.0565 |  |  | 0.0608 |
| P40R | 0.0571 | 0.0803 |  | 0.0795 | 0.0662 | 0.0865 | 0.0891 | 0.0796 |  | 0.0702 |  | 0.0696 |  | 0.102 | 0.0731 | 0.0731 |  | 0.0858 | 0.0672 |
| P40G | 0.0889 | 0.0498 | 0.0778 | 0.0907 | 0.0759 | 0.0868 | 0.076 | 0.128 | 0.0694 |  | 0.0571 | 0.0618 |  | 0.0593 | 0.076 | 0.0704 | 0.0755 |  | 0.0842 |
